About 200 (0.44%) of roughly 45,000 compounds were called active. Not shown: some 7% with an inconclusive outcome. Calls follow the shape of the dose curve; as a rule, active = well fitted activation curve with a large enough effect; inconclusive = small, poorly fitted or top-dose-only effect; inactive = no such curve, though single readings can be large or run the other way. The list shows a part of the results.
Assay: qHTS of TDP-43 Inhibitors: NCGC Sytravon Library Screen; also: nearly all actives have a fitted effect of over 55% in size; as to growth rescue (activation): 0% is about no effect
Details: yeast TDP-43 toxicity rescue, BacTiter-Glo growth, 24 h; series mostly up to 46.1 µM; growth rescue (activation): at the top concentration
Procedure, shortened: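 TDP-43-expressing yeast, pregrown in raffinose, seeded at OD600 0.02 in galactose medium with compound for 24 hr at 30 deg C. Growth read by BacTiter-Glo luminescence, so rescue of toxicity appears as activation.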
Potency is read from the fitted curve at half-maximal effect.

| Structure (SMILES) | growth rescue (activation) | Potency |
| --- | --- | --- |
| COc1ccc(NS(=O)(=O)c2cc(NC(=O)/C=C/c3cc(OC)c(OC)c(OC)c3)ccc2N2CCCCC2)cc1 | inactive: -15.5% | – |
| Cn1cc(-c2ccc(C(=O)Nc3cccc(Oc4ccccc4)c3)c3occc23)cn1 | inactive: 8.89% | – |
| O=C(c1cc(-c2ccc3c(c2)OCO3)on1)N1CCCCC1 | inactive: 21% | – |
| CCc1nc2ccc(C(=O)NCC3CCCCC3)cn2c1N(CCC(C)C)CCN(C)C | inactive: 8.86% | – |
| CCCOP(=O)(c1ccc(N(C)C)cc1)C(Nc1ccccc1)c1ccc(N(C)C)cc1 (stereo not given) | inactive: 25.2% | – |
| O=C(CSc1cccc[n+]1[O-])Nc1ccccc1C(F)(F)F | inactive: -23.2% | – |
| CCCNC(=O)C1(C)CCN(C(=O)c2cccc(Cl)c2)C1 (stereo not given) | inactive: 0.28% | – |
| COC(=O)c1c(C(=O)OC)c(-c2cccc(C)c2)n2c1CS(=O)(=O)C2 | inactive: 7.85% | – |
| COc1ccc2cc(C(C)C(=O)NC3CCC(O)CC3)ccc2c1 (stereo not given) | inactive: 1.78% | – |
| COCCN(C(=S)Nc1ccccc1OC)C1CCN(C(C)=O)CC1 | inactive: 5.64% | – |
| CCC(C)[C@H](NC(=O)NCc1ccc(S(N)(=O)=O)cc1)C(=O)OC (stereo not given in full) | inactive: 6.89% | – |
| O=C(CN1CCN(c2ccccc2)CC1)N1N=CCC1c1ccccc1 (stereo not given) | inactive: -4.02% | – |
| COc1ccc(Br)cc1CN(C)CC(=O)Nc1c(Cl)cccc1Cl | inactive: -4.9% | – |
| O=C(CN1C(=O)NC2(CCc3ccccc32)C1=O)Nc1cccc(Cl)c1 (stereo not given) | inactive: 10.5% | – |
| Cc1sc2nc(SCC(=O)N(CCO)CCO)nc(N)c2c1C | inactive: 19% | – |
| O=C(NS(=O)(=O)Oc1ccc(F)c(Cl)c1)OC[C@@H]1CCCN2CCCCC12 (stereo not given in full) | inactive: 7.17% | – |
| Cc1ccc(/C([O-])=C(/C(=S)NCc2ccco2)[n+]2ccccc2)cc1[N+](=O)[O-] | inactive: 0.696% | – |
| COc1ccc(S(=O)(=O)NCC2CC3C=CC2C3)cc1OC (stereo not given) | inactive: 15.7% | – |
| O=C(NCCO)c1cc2c([nH]c3ccccc32)c(-c2ccc(F)cc2)n1 | inactive: -1.47% | – |
| C=CCn1c(-c2ccccc2[N+](=O)[O-])n[nH]c1=S | inactive: 2.35% | – |
| CCc1cc2c(C)cc(C)cc2nc1SCC(=O)Nc1cc(C)on1 | inactive: 7.41% | – |
| O=C(CCS(=O)(=O)c1ccc(Cl)cc1)Nc1nccs1 | inactive: 6.38% | – |
| COc1ccccc1/C=N\Nc1cc(C)nc(-n2nc(C)cc2C)n1 | inactive: 21.3% | – |
| CC(Sc1nncn1-c1ccccc1)C(=O)Nc1cccc([N+](=O)[O-])c1 (stereo not given) | inactive: 12.8% | – |
| NC(=O)c1nsc(C(=O)N(CC(=O)NC2CCCC2)c2ccc(F)c(Cl)c2)c1N | inactive: 10.6% | – |
| COc1ccc(/C=C/C(=O)N2CCN(S(=O)(=O)/C=C/c3ccccc3)CC2)cc1OC | inactive: 8.25% | – |
| O=C(NCc1cccnc1)/C(=C/c1ccc([N+](=O)[O-])cc1)NC(=O)c1ccccc1 | inactive: 14.9% | – |

| Structure (SMILES) | growth rescue (activation) | Potency |
| --- | --- | --- |
| CCOC(=O)c1c(C)[nH]c(C(=O)Nc2ccc(NC(C)=O)cc2)c1C | inactive: -1.36% | – |
| COc1cc2c(cc1OC)C(C(=O)N(C)Cc1ccccc1)C(c1cccnc1)N(C)C2=O (stereo not given) | inactive: 11.5% | – |
| CCc1ccc2c(CN3CCN(Cc4ccccc4)CC3)cc(=O)oc2c1 | inactive: -0.28% | – |
| COc1ccc(OCCNC(=O)c2ccc3nc(C)c(N(C)C(=O)CCc4ccccc4)n3c2)cc1 | inactive: 8.7% | – |
| COc1ccc(CCC(=O)OCC(=O)Nc2sccc2C#N)cc1 | inactive: 11.3% | – |
| C/C(=N\Nc1ccc([N+](=O)[O-])cc1)c1ccc2c(c1)OCO2 | inactive: 4.95% | – |
| O=C(CCCCCl)Nc1c2c(nc3ccccc13)CCC2 | inactive: 11.9% | – |
| COc1ccc(Nc2ncnc3ccc(Br)cc23)cc1OC | inactive: -12.3% | – |
| CCC(C(=O)OC)(C(=O)OC)c1ccc([N+](=O)[O-])cc1 | inactive: 22.8% | – |
| CCOC(=O)CC(NC(=O)CCc1c(C)nc2nc(C)nn2c1C)c1ccc(C)cc1 (stereo not given) | inactive: 7.13% | – |
| Cc1cccc(-n2c(C)cc(C=C(C#N)C#N)c2C)c1 | inactive: -26% | – |
| O=C(NCCCNC(=O)c1cccnc1)c1ccc(Cl)cc1 | inactive: -5.71% | – |
| Cc1ccc(C(=O)NCC(=O)NCc2ccccc2F)s1 | inactive: 11.7% | – |
| O=C(Nc1ccccc1Cl)c1cccc(NC(=O)c2cccs2)c1 | inactive: 37.3% | – |
| CN(CCN1CCOCC1)Cc1nc(-c2ccc(Cl)cc2)no1 | inactive: 0.128% | – |
| Cc1cc(C)cc(N(C(C)C(=O)NCc2ccc3c(c2)OCO3)S(C)(=O)=O)c1 (stereo not given) | inactive: -3.88% | – |
| CCN(CC)C(=O)CSc1nnc(-c2ccccn2)n1Cc1ccccc1 | inactive: 29.5% | – |
| COc1ccc(N2CCN(C(=S)NC(=O)c3cccs3)CC2)c([N+](=O)[O-])c1 | – | active: 28.2 µM |
| O=C(CN1C(=O)CCS(=O)(=O)c2ccccc21)NCc1ccc(F)cc1 | inactive: -14.7% | – |
| COc1ccc(NC(=S)N2CCCC2)c(OC)c1 | inactive: 0.368% | – |
| O=C(Nc1ccc(OCc2ccccc2)cc1)Nc1nnc([C@H]2C[C@H](O)[C@@H](CO)O2)s1 | inactive: 5.34% | – |
| Cc1ccc(CN2C(=O)CCC2C(=O)NC2CCCC2)cc1 (stereo not given) | inactive: 32.6% | – |
| COc1ccc(OCCN2CCC(C(=O)NC(c3ccc(F)cc3)c3ccc4ccccc4n3)CC2)cc1 (stereo not given) | inactive: 18.6% | – |
| O=C(COc1ccc(Oc2ccccc2)cc1)NC1CCS(=O)(=O)C1 (stereo not given) | inactive: 5.09% | – |
| COCCNC(=O)C1(C)CCCN(Cc2cccc(F)c2)C1 (stereo not given) | inactive: -16.4% | – |
| O=C(O)c1ccc(N2C(=O)CC(N3CCN(c4cccc(C(F)(F)F)c4)CC3)C2=O)cc1 (stereo not given) | inactive: 20% | – |
| O=C(NCCc1ccccc1)Nc1cccc(Cl)c1 | inactive: 18.5% | – |

| Structure (SMILES) | growth rescue (activation) | Potency |
| --- | --- | --- |
| O=C(NCc1ccccn1)c1ccc(N2CCCC2)c([N+](=O)[O-])c1 | inactive: 12% | – |
| CCOc1cc(NC(=S)NCCOC)c(OCC)cc1NC(=O)c1cccs1 | inactive: -0.449% | – |
| COC(=O)c1ccc(/C=C2\CCn3c2nc2cc(C(=O)O)ccc2c3=O)cc1 | inactive: 6.42% | – |
| COc1ccc(CC(=O)c2cc(OC)c(OC)cc2CC(=O)O)cc1OC | inactive: -29.5% | – |
| O=C(NCc1ccc(-c2nc3ccccc3s2)cc1)c1cc2ccccc2o1 | inactive: -0.429% | – |
| O=C(CN1CCN(C(=O)N2CCOCC2)CC1)Nc1cc(Cl)ccc1Cl | inactive: 11.9% | – |
| O=C(NC1CCCCC1)C(c1ccccc1)N(Cc1ccco1)C(=O)c1csnn1 (stereo not given) | inactive: 8.53% | – |
| Nc1ccc(C(=O)OCC(=O)N2CCc3ccccc3C2)cc1[N+](=O)[O-] | inactive: 6.2% | – |
| CCOc1ccc(CC(C(N)=O)C(N)=O)cc1 | inactive: 4% | – |
| COc1cccc(CC(NC(C)=O)C(=O)NC2CCN(C(=O)c3ccc(Cl)cc3)CC2)c1OC (stereo not given) | inactive: 17.5% | – |
| CCOc1nc(NCCN2CCOCC2)nc(Nc2ccc([N+](=O)[O-])cc2)n1 | inactive: 3.19% | – |
| O=C(NC1CCCC1)C1CCN(C(=O)c2ccc(Cl)cc2)CC1 | inactive: 8.98% | – |
| C[C@H](NC(=O)c1ccco1)C(=O)N1CCCC1 | inactive: -41.1% | – |
| CC(=O)Nc1cccc(-c2ccnc3c2CC(C(=O)Nc2cccnc2)O3)c1 (stereo not given) | inactive: 4.58% | – |
| Cc1ccc(NC(=O)CN(C)C(=O)c2ccc(Br)o2)cc1 | inactive: -3.69% | – |
| CCOc1cc(CNc2nn[nH]n2)ccc1OCC(=O)NC(C)(C)C | inactive: 9.06% | – |
| Cc1ccc(C)c(C(=O)c2ccccc2NC(=O)c2ccccn2)c1 | inactive: 32.3% | – |
| CCn1cc(C(=O)NCCc2ccccc2)c(=O)c2cc(S(=O)(=O)N3CCCC3)ccc21 | inactive: 19.4% | – |
| Fc1cccc(Cl)c1CSC1=NCCS1 | inactive: 8.91% | – |
| CCS(=O)(=O)N1CCC(C(=O)Oc2ccc(C(=O)OC)cc2)CC1 | inactive: -8.21% | – |
| Cn1nnc2cc(C(=O)Nc3ccccc3F)ccc21 | inactive: 2.25% | – |
| CC(CCc1ccccc1)NCC(O)COc1ccccc1 (stereo not given) | inactive: 8.03% | – |
| N=c1oc2ccccc2cc1C(=O)Nc1ccc(F)cc1 | inactive: -5.23% | – |
| Cc1cccc(C)c1NC(=O)C(c1ccccc1)N1CCN(C(=O)c2ccco2)CC1 (stereo not given) | inactive: 0.838% | – |
| O=C(Nc1ccc(Cl)c(Cl)c1)Nc1ccccc1C(=O)O | inactive: -1.9% | – |
| Cc1ccc(NC(/C=C/N(C)C)=C/C(=O)C(F)(F)F)c(C)c1 | inactive: -1.64% | – |
| Cc1ccc(C(=O)N(C)c2ccc(OCC(=O)N3c4ccc(C)cc4C4CN(C)CCC43)cc2)cc1 (stereo not given) | inactive: -16% | – |

| Structure (SMILES) | growth rescue (activation) | Potency |
| --- | --- | --- |
| O=C(Nc1cccc2ncccc12)c1ccco1 | inactive: 21.7% | – |
| COc1ccc(/C=C(/NC(=O)c2ccccc2)C(=O)N2CCCC2)cc1OC | inactive: -10.5% | – |
| Cc1cccc2sc(NC(=O)[C@H](C)N3C(=O)C4CC=CCC4C3=O)nc12 (stereo not given in full) | inactive: 17.4% | – |
| CCC(=O)Nc1ccc(Br)cn1 | inactive: -11.7% | – |
| O=C(CN(C(=O)CNC(=O)c1cccs1)c1ccc(F)cc1)NC1CCCCC1 | inactive: 10.1% | – |
| COCCCN1C(=O)C2C(C(=O)Nc3cc(C)cc(C)c3)C3C=CC2(O3)C1C(=O)NC1CCCCC1 (stereo not given) | inactive: -7.58% | – |
| CC(C)(C)N(Cc1ccccc1)C(=O)CSc1ncn[nH]1 | inactive: -4.33% | – |
| CCOC(=O)C1=C(c2ccccc2)Nc2ncnn2C1c1ccc(C(=O)O)cc1 (stereo not given) | inactive: 22.2% | – |
| O=C(CN1C(=O)c2ccccc2S1(=O)=O)Nc1cccc(S(=O)(=O)N2CCOCC2)c1 | inactive: 0.726% | – |
| CCOC(=O)C(=O)c1c(-c2ccccc2)nc2ccccn12 | inactive: 0.859% | – |
| COc1ccc(C(C(=O)NC(C)(C)C)N(C(=O)CCC(=O)Nc2ccccn2)C2CCCCC2)cc1 (stereo not given) | inactive: 7.8% | – |
| COc1ccc(Cc2nnc(N/N=C/c3ccccc3O)[nH]c2=O)cc1OC | inactive: -7.29% | – |
| Cc1ccc(S(=O)(=O)c2nc(Nc3ccccc3C#N)sc2Cl)cc1 | inactive: 4.76% | – |
| Cc1cc(C)nc(CCNC(=O)CC2C(=O)NCCN2Cc2ccc(F)cc2Cl)n1 (stereo not given) | inactive: 10.8% | – |
| C=CCN(c1ccccc1OC)S(=O)(=O)c1cccc(C(=O)NCc2ccco2)c1 | inactive: 0.938% | – |
| Cc1[nH]c2ccc(C(=O)OC(C)C(=O)N(C)C3CCCCC3)cc2c1C (stereo not given) | inactive: 13.7% | – |
| CCOc1ccccc1C1c2cc3c(cc2OC(C)(N2CCCC2)C1C)OCO3 (stereo not given) | inactive: -13.9% | – |
| CCn1c(SCC(=O)NCCOc2ccccc2)nc2ccccc2c1=O | inactive: 24.5% | – |
| COCc1nnc(NC(=O)c2ccc(S(=O)(=O)N(C)Cc3ccccc3)cc2)o1 | inactive: 9.21% | – |
| CCC(C)[C@H](NC(=O)[C@@H]1Cc2ccccc2CN1C(=O)OC(C)(C)C)C(=O)NCC1CCC(C(=O)O)CC1 (stereo not given in full) | inactive: 28.2% | – |
| N#C/C(=C(/O)COc1ccccc1)c1nnc2n1CCCCC2 | inactive: 12.9% | – |
| O=C(CN1CCN(Cc2cccc3ccccc23)CC1)NCCc1ccccc1 | inactive: 5.91% | – |
| O=C(NC1CCCCC1)C(c1c(F)cccc1Cl)N(C(=O)c1csnn1)C1CC1 (stereo not given) | inactive: -5.5% | – |
| CC(=O)Nc1ccc(S(=O)(=O)N2CCN(CC3CC4C=CC3C4)CC2)cc1 (stereo not given) | inactive: -11.8% | – |

From PubChem BioAssay AID1347073 (National Center for Advancing Translational Sciences (NCATS), 2019)
